Each structure is given as a SMILES string. Whole data set: some 110,000 compounds, median “z-score” near -0.1, cut for the highest 2% near 2. The list shows a part of the results. Activity calls are given as the source filed them.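 How the source made its calls: active means z-score in the third read window above 3 or below -3; inactive means the rest.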

The experiment has as its target Metabotropic glutamate receptor 8 (Rattus norvegicus) (UniProt P70579). The experiment can be described thus: rat mGluR8 modulators via GIRK flux, primary screen, cell-based, thallium flux, HTS (AID 488969). The settings on record: HEK293 rat mGluR8, GIRK (G protein-gated inwardly rectifying potassium channel) thallium flux, FluoZin2; at 10 µM; stronger effect = higher value; submaximal glutamate (EC20) added with thallium.
Chain of UniProt P70579 (P70579 whole entry, looked up): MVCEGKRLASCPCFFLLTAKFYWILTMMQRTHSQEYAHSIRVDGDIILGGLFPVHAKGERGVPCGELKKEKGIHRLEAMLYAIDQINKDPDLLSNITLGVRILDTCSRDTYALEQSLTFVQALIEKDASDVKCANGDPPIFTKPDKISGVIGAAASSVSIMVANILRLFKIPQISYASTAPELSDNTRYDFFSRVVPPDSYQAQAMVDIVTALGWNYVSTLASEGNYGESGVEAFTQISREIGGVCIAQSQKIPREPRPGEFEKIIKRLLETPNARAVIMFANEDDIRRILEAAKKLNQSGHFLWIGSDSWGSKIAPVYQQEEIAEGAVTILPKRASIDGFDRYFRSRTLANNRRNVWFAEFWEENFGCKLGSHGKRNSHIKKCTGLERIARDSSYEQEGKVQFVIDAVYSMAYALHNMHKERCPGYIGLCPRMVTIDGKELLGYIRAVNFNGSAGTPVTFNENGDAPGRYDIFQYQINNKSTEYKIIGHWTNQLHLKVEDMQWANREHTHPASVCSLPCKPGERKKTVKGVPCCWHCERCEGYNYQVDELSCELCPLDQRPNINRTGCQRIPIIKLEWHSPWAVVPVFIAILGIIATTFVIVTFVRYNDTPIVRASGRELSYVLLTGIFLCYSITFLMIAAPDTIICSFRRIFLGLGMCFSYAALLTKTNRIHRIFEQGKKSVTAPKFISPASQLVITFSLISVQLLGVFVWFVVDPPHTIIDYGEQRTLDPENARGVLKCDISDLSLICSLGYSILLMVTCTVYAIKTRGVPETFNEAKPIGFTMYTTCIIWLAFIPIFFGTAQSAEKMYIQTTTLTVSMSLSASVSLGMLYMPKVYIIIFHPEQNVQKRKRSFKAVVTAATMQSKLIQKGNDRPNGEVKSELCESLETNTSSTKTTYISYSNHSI
`Cc1ccc(Cc2nc(-c3cccnc3)no2)cc1`: the z-score is -0.166.

`CC(=O)Cc1nsc(NC(=O)c2cn(-c3ccccc3)nc2-c2ccc(Br)cc2)n1`: the z-score was determined as 0.229.

`COc1cccc(C(=O)NCC(=O)N/N=C/c2cccs2)c1` registered a z-score of 0.0591.

As to `O=C(O)c1ccccc1-c1ccccc1C(=O)NCc1ccco1`, the z-score was found to be 0.227.

`CC1CC(=O)C2=C(C1)OC(N)=C(C#N)C2c1coc2ccccc2c1=O` (stereo unspecified): the z-score was -0.233.

Regarding `CC1CCN(CC(C)CNC(=O)c2cc(-c3ccccn3)nc3ccccc23)CC1` (stereo unspecified), the z-score was -0.0396.

`Cc1c(C(=O)NC2=NCCS2)oc2ccccc12` displayed a z-score of 0.411.

Compound `COc1ccc(-c2cc(C(F)(F)F)n3ncc(C(=O)NCC4CCCO4)c3n2)cc1` (stereo unspecified) registered a z-score of -0.921.

The compound `O=C(NCC(=O)N(Cc1ccccc1)C(C(=O)NC1CCCC1)c1ccncc1)c1ccco1` (stereo unspecified) displayed a z-score of 0.158.

The compound `CC(C)Oc1ccc(C2C(C(=O)c3ccco3)=C(O)C(=O)N2CCCN(C)C)cc1` (stereo unspecified) came in with a z-score of 0.152.

The compound `COC(=O)C1=C(C)Nc2ncnn2C1c1cccnc1` (stereo unspecified) came in with a z-score of -0.0304.

The compound `Cc1ccc(C)c(NC(=O)CSc2nnc(-c3ccccc3)n2N)c1` returned a z-score of 0.11.

`Cc1ccc(S(=O)(=O)c2cc3c(=O)n4ccccc4nc3n(CC3CCCO3)c2=N)cc1` (stereo unspecified): the z-score came to 0.97.

`CC(O)C(NS(=O)(=O)c1ccc(Cl)cc1)C(=O)OCC(=O)N1CCN(c2ccccc2)CC1` (stereo unspecified) had a z-score of 0.0764.

With `CCn1c(SCCC#N)nnc1-c1ccncc1`, the z-score is -0.263.

As for `O=C1CSC(c2ccccn2)N1c1ccccc1` (stereo unspecified), the z-score was -0.159.

`COc1ccc(NC(=O)C2CCN(S(C)(=O)=O)CC2)cc1` registered a z-score of -0.219.

With `CCC(C)(C)n1nnnc1C(c1ccc(OC)c(OC)c1)N1CCN(c2cccc(OC)c2)CC1` (stereo unspecified), the z-score was -0.135.

`Cc1cc(=O)n2[nH]c(SCc3ccccc3)nc2n1`: the z-score is -0.411.

Consider `COc1ccc(C/C(N)=N/O)cc1`, for which the z-score came out at 0.09.

`Cc1ccccc1NS(=O)(=O)c1cc(C(=O)N2CCCC2)ccc1C` came in with a z-score of 0.276.

As to `COc1ccc2c(C)c(C(=O)O)oc2c1`, the z-score was -1.11.

As for `Clc1ccc(-c2nc(-c3ccccn3)no2)cc1Cl`, the z-score is -0.435.

With `Cc1cn(-c2ccc(Br)cc2)[nH]c1=O`, the z-score worked out at 0.263.

On to `CC1CCCCC1N1CCN(C(=O)c2cccc(F)c2)CC1` (stereo unspecified), for which the z-score is -1.26.

In turn, `CC(C)N(C(=O)NC(=O)Nc1ccccn1)S(C)(=O)=O` came in with a z-score of 0.0224.

In turn, `COc1ccccc1-c1nnc(SCc2nc3ccccc3[nH]2)n1C` showed a z-score of -0.212.

`C/C=C/c1ccc(OCCCCOc2c(OC)cccc2OC)c(OC)c1`: the z-score is -0.379.

Turning to `CC1=[N+]([O-])C(C)(C)C(C)N(O)C1=O` (stereo unspecified), the z-score was 0.305.

`O=[N+]([O-])c1cccc(/C=C/c2nc3ccc([N+](=O)[O-])cc3[nH]2)c1` showed a z-score of -0.342.

`CNC(=O)C(=O)NCCc1ccc(Cl)cc1` had a z-score of -0.417.

`C=CCn1c(COc2ccccc2)nnc1SCC(=O)N/N=C/c1ccc(C)cc1`: the z-score is -0.362.

Regarding `c1ccc(-c2cc(-c3nn4c(-c5ccco5)nnc4s3)c3ccccc3n2)cc1`, the z-score is -0.873.

`CCOc1ccc(N(CC(=O)NCc2ccc(F)cc2)S(=O)(=O)c2c(C)noc2C)cc1`: the z-score was -0.34.

With `Cc1c(Cl)cnc(NC(=O)CSc2nnc3ccccn23)c1Cl`, the z-score amounted to 0.0524.

Take `CCOc1ccc2nc(N/C(N)=N/C(=S)Nc3ccc(C)c(C)c3)nc(C)c2c1`: the z-score was -0.22.

`CCCCOCCCNC(=O)/C=C/c1ccccc1Cl` had a z-score of -0.149.

Compound `COc1ccc(/C(O)=C2/C(=O)C(=O)N(Cc3cccnc3)C2c2ccco2)cc1OC` (stereo unspecified) showed a z-score of -0.0878.

With `COc1ccc(/C=N/NC(=O)C(C)n2nnc3ccccc32)cc1OC` (stereo unspecified), the z-score is -0.379.

With `CCOC(=O)c1[nH]c(C)c(C(=O)N(C)C)c1C`, the z-score was determined as 0.00259.

As to `COC(=O)C1=C(C)NC(=O)/C1=C\c1cc(C)n(-c2cc(C)cc(C)c2)c1C`, the z-score stood at 0.531.

Consider `O=C1c2ccsc2SCCN1Cc1c(Cl)cccc1Cl`, for which the z-score was -0.329.

Regarding `COC(=O)c1cc(C#N)c(Oc2ccccc2)nc1C`, the z-score came out at 0.107.

Take `NC(=S)NNC(=O)c1ccccc1`: the z-score is -0.143.

Turning to `CN(CC(=O)NC1CCCCCCC1)S(=O)(=O)c1cccc2cccnc12`, the z-score was -0.0963.

`Cc1cc(=O)[nH]c(N/N=C/c2ccccn2)n1`: the z-score is 0.0808.

`COc1ccc(-c2nc(C#N)c(N3CCc4ccccc4C3)o2)cc1OC`: the z-score is -0.136.

The compound `O=C(CSc1nc2ccccc2[nH]1)Nc1ccc(F)cc1` gave a z-score of -0.135.

Regarding `O=C(NCC1CCCO1)Nc1cccc(Cl)c1` (stereo unspecified), the z-score is -0.0292.

For `CC(Sc1nncn1C)C(=O)Nc1ccccc1-c1ccccc1` (stereo unspecified), the z-score was -0.378.

Compound `COC(C(=O)Nc1ccc(F)cc1F)c1ccccc1` (stereo unspecified) showed a z-score of 0.152.

Turning to `S=C(NCc1ccccc1)NCc1cccc(CNC(=S)NCc2ccccc2)c1`, the z-score was 2.84.

Regarding `S=C(Nc1ccc(Cl)cc1Cl)Nc1ccccc1Oc1ccccc1`, the z-score is active: 4.54.

As to `CC1CC(C)CN(CCOCCSc2ccccc2)C1` (stereo unspecified), the z-score is 0.729.

Take `COc1cc(OC)nc(Oc2ccccc2C(=O)Oc2ccc(C)cc2)n1`: the z-score was -0.28.

In the case of `Cc1ccc(/C=N/NC(=O)c2c[nH]c3ccccc23)o1`, the z-score was -0.943.

On to `COC1(OC)N=C(N)C2(C#N)C(c3cccc(Oc4ccccc4)c3)C12C#N` (stereo unspecified), for which the z-score came to 0.201.

As for `Cc1cc(Nc2ccccc2)c2c([N+](=O)[O-])ccc(C)c2n1`, the z-score was -0.521.

As to `Cc1ccccc1-c1nc(CN2CCC(C(=O)NCCCN3CCCC3)CC2)c(C)o1`, the z-score is 2.76.

Regarding `O=C(COC(=O)CNC(=O)c1ccc(Cl)cc1)Nc1ccc2c(c1)OCCO2`, the z-score is -0.149.

For the compound `COCc1nnc(NC(=O)CSCc2ccccc2)s1`, the z-score is 1.07.

On to `COC(=O)c1cc(NS(=O)(=O)c2ccc(N3CCCCCC3)c([N+](=O)[O-])c2)cc(C(=O)OC)c1`, for which the z-score worked out at 0.0291.

Regarding `COc1ccc(OCC(=O)NC(=S)Nc2ccc(N3CCOCC3)c(Cl)c2)cc1`, the z-score stood at 2.19.

`FC(F)(F)c1cc(-c2ccccc2)nc(N2CCCCCC2)n1` had a z-score of 0.105.

Consider `CCOC(=O)N1CCN(C(=O)CN(Cc2ccc(Cl)cc2)S(=O)(=O)c2ccccc2)CC1`, for which the z-score is -0.438.

For `O=C(NCC1CCCO1)C1CCN(c2ccc(S(=O)(=O)N3CCCC3)cc2)CC1` (stereo unspecified), the z-score amounted to 0.205.

`CCC(C)NC(=O)CSC1=Nc2ccccc2C2=NC(c3ccccc3)C(=O)N12` (stereo unspecified) had a z-score of -0.314.

In the case of `CCCc1[nH]nc2c1C(/C(C)=C/c1ccccc1)C(C#N)=C(N)O2` (stereo unspecified), the z-score was -0.344.

`O=C(O)c1ccccc1S(=O)(=O)NCC(O)COc1ccc(Br)cc1` (stereo unspecified) came in with a z-score of -0.391.

Regarding `O=C(CCn1c(=O)sc2ccccc21)NCc1cccs1`, the z-score amounted to 0.558.

Compound `O=C(CSc1n[nH]c(-c2ccco2)n1)Nc1sc2c(c1C(=O)Nc1ccccc1)CCCC2` gave a z-score of -0.294.

The compound `CCCn1nnnc1SCC(=O)Nc1cccc(NC(=O)c2ccco2)c1` displayed a z-score of -0.0883.

`O=C(OCc1nnc(-c2ccccc2)o1)c1cc(S(=O)(=O)N2CCOCC2)c(Cl)cc1Cl` displayed a z-score of -1.28.

`CCn1ncc(CN2CCN(C(=O)Nc3ccccc3C(=O)OC)CC2)c1C` registered a z-score of -0.437.

With `COC(=O)c1c(C#N)c(N)nc2c1CCC2`, the z-score was -0.0826.

On to `Cc1ccccc1N(CC(=O)N/N=C/c1ccc(N(C)C)cc1)C(=O)c1ccccc1`, for which the z-score is -0.39.

Consider `Nc1ccc(OCc2ccccc2)cc1`, for which the z-score was -0.0146.

`CCCC(C(=O)Nc1nccs1)c1ccccc1` (stereo unspecified): the z-score is -0.281.

`CC(C)(C)c1ccc(OCC(O)CS(=O)(=O)c2ccccn2)cc1` (stereo unspecified) yielded a z-score of -0.438.

With `CC1CCCCN1CCCNC(=O)c1ccc2c(=O)n(CCc3ccccc3)c(=O)[nH]c2c1` (stereo unspecified), the z-score turned out to be 2.93.

In turn, `CCOC(=O)c1c(/N=C/N(C)C)sc2c1CCC2` showed a z-score of -0.178.

`Cc1ccc(C(C(=O)NC(C)(C)C)N(Cc2ccco2)C(=O)Cn2nnc(-c3cccs3)n2)cc1` (stereo unspecified) showed a z-score of -0.532.

The compound `CC(C)c1ccc(NC(=O)COc2nncc3ccccc23)cc1` had a z-score of -0.102.

In turn, `O=C1CC(C(=O)Nc2ccc(C(=O)O)cc2)C(c2ccccc2)O1` (stereo unspecified) displayed a z-score of -0.202.

`CCOC(=O)c1c(NC(=O)CC2SC(=NC)N(C)C2=O)sc(C)c1C` (stereo unspecified) registered a z-score of -0.326.

`Cc1ccc2nc(NC(=O)COC(=O)c3ccco3)sc2c1` returned a z-score of 0.445.

Regarding `O=C(CN1C(=O)S/C(=C\c2ccc(Cl)cc2)C1=O)NNC(=O)c1ccccc1O`, the z-score is -0.204.

In turn, `O=C(COc1ccccc1F)NC1CC1` showed a z-score of 0.105.

`CC1CN(c2nc3c(c(=O)n(Cc4ccc(Cl)cc4)c(=O)n3C)n2C)CC(C)O1` (stereo unspecified) had a z-score of -0.458.

For the compound `O=C(CCC(=O)OCC(=O)c1ccc(F)cc1)NC1CCCCC1`, the z-score was -0.239.

In turn, `COc1ccc(CNC(=O)c2ccc(S(=O)(=O)N3CCCC3)cc2)cc1OC` had a z-score of 0.432.

On to `O=C(O)Cn1cnc2ccccc2c1=O`, for which the z-score is -0.107.

Turning to `O=C(O)CCc1ccc(-c2ccccc2)n1NC(=O)c1sc2ccccc2c1Cl`, the z-score is -0.0719.

With `CN(C)S(=O)(=O)c1cccc(NC(=O)c2ccc(OC(F)(F)F)cc2)c1`, the z-score is -0.329.

Compound `CCOc1ccccc1NC(=S)N1C2CCC1CC(NC(=O)NC13CC4CC(CC(C4)C1)C3)C2` (stereo unspecified) registered a z-score of -0.0523.

`CCOC(=O)CC(=O)CSc1nc2sc(C)cc2c(=O)n1Cc1ccco1` displayed a z-score of 0.0235.

`COc1ccc(CN(C)CCc2ccccn2)cc1OC` had a z-score of -0.0672.

`O=C1CS/C(=N\C(=O)N2c3ccccc3Sc3ccccc32)N1`: the z-score was active: 7.66.

Turning to `O=C(CNC(=O)c1ccccc1Cl)Nc1ccc(F)cc1`, the z-score worked out at 0.156.

The compound `COc1ccc(NC(=O)C2C3C=CC(C3)C2C(=O)NCc2ccccn2)c(OC)c1` (stereo unspecified) came in with a z-score of -0.404.

`COc1ccccc1Nc1nc2nonc2nc1N1CCCCC1C` (stereo unspecified) showed a z-score of -0.202.

As for `O=C(NC1CCCCC1NC(=O)c1ccco1)c1ccco1` (stereo unspecified), the z-score is 0.265.

In the case of `NC(=O)C1(N2CCCCC2)CCN(CC(=O)Nc2ccccc2-c2ccccc2)CC1`, the z-score is -0.162.

`Cc1sc2nc(CN3CCOCC3)[nH]c(=O)c2c1-c1ccccc1` had a z-score of -0.112.

For `COc1ccccc1-n1cnc2sc(-c3ccccc3)cc2c1=O`, the z-score is -0.0702.

The compound `CS(=O)(=O)N(CC(=O)NCc1ccccn1)c1ccc2c(c1)OCCO2` had a z-score of 0.763.

The compound `CCCC(=O)N1CCN(S(=O)(=O)c2cc(Cl)ccc2OC)CC1` came in with a z-score of -0.187.

Take `Cc1ccc(C(=O)N/C(=C\c2cccc([N+](=O)[O-])c2)C(=O)NCc2ccncc2)cc1`: the z-score is -0.178.

On to `CCc1nc2sc3c(c2c(=O)n1N)CCC3`, for which the z-score came out at 1.94.

For `O=[N+]([O-])c1ccc(S(=O)(=O)N2CCN(Cc3c[nH]c4ccccc34)CC2)cc1`, the z-score came to 0.0733.

Take `CCOC(=O)Cn1c(=NC(=O)CN2C(=O)CCC2=O)sc2cc(S(N)(=O)=O)ccc21`: the z-score is -0.111.

Values taken from PubChem BioAssay AID488969 (Vanderbilt High Throughput Screening Facility, 2010).
